What all share (assay): two-hybrid; GAL4 system, co-transformation of pAS2.1-attR/pACT-attR (or TTG1-pcACT2) vector combinations; colonies on SD-LWH with 3, 5, 10, 15, 20, 30 mM 3-AT, SD-LW as control; scanned after three and seven days; at least three replicates
In test [1] the target is T1, … TESTA GLABRA 1 (Arabidopsis thaliana) (UniProt Q9XGN1).
T1 sequence: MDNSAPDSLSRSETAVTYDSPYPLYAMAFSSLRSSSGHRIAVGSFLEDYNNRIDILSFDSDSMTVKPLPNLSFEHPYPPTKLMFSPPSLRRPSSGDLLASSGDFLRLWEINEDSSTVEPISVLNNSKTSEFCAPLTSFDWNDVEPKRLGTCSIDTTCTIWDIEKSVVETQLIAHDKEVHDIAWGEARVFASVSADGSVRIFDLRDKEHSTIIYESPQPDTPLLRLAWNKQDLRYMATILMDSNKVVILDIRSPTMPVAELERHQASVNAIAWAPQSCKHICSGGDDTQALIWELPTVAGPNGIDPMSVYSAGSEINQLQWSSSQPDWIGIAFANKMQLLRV

Test [2] concerns the target T2, LIGHT-REGULATED WD1 (Arabidopsis thaliana (cDNA from Col-0 seedlings)) (UniProt Q9LPV9).
T2 sequence: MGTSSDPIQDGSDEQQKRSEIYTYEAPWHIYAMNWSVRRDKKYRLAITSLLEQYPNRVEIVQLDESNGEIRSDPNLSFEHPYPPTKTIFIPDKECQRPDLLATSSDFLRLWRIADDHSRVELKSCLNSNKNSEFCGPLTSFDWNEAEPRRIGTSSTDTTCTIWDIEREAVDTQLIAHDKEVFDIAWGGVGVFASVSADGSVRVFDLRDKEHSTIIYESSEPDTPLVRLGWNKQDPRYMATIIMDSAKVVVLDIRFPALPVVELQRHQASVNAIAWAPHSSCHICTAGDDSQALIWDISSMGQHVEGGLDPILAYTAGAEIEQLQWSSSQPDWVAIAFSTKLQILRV

The target of test [3] is T3, LIGHT-REGULATED WD2 (Arabidopsis thaliana (cDNA from Col-0 seedlings)) (UniProt Q38960).
T3 sequence: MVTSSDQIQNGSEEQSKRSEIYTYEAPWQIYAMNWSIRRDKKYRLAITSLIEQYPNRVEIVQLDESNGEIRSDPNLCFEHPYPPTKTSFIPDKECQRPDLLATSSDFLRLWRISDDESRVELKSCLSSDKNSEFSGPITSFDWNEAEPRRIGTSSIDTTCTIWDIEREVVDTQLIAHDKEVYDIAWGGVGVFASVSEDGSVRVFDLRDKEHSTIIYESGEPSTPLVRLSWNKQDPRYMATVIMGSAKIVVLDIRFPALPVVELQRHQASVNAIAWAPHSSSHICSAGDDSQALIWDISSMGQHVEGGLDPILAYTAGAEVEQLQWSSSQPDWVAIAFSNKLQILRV

The target in test [4] is T4, PSEUDO RESPONSE REGULATOR 5 (Arabidopsis thaliana (cDNA from Col-0 seedlings)) (UniProt Q6LA42).
T4 sequence: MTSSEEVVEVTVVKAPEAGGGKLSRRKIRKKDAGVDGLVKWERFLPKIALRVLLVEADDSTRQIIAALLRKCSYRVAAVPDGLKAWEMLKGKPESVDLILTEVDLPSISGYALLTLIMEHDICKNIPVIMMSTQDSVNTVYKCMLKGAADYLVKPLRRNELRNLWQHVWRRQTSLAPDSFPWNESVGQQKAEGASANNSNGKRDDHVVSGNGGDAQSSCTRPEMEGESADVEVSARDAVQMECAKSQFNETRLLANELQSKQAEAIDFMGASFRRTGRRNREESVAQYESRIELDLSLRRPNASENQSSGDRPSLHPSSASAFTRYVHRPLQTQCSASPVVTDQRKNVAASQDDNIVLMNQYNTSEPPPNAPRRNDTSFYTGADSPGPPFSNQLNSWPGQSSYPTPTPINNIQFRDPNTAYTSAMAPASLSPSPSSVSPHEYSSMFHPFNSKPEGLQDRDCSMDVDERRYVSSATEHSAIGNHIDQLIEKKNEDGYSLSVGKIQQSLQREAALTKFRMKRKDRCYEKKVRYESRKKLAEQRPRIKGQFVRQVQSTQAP

Test [5] deals with T5, PSEUDO RESPONSE REGULATOR 7 (Arabidopsis thaliana) (UniProt Q93WK5).
T5 sequence: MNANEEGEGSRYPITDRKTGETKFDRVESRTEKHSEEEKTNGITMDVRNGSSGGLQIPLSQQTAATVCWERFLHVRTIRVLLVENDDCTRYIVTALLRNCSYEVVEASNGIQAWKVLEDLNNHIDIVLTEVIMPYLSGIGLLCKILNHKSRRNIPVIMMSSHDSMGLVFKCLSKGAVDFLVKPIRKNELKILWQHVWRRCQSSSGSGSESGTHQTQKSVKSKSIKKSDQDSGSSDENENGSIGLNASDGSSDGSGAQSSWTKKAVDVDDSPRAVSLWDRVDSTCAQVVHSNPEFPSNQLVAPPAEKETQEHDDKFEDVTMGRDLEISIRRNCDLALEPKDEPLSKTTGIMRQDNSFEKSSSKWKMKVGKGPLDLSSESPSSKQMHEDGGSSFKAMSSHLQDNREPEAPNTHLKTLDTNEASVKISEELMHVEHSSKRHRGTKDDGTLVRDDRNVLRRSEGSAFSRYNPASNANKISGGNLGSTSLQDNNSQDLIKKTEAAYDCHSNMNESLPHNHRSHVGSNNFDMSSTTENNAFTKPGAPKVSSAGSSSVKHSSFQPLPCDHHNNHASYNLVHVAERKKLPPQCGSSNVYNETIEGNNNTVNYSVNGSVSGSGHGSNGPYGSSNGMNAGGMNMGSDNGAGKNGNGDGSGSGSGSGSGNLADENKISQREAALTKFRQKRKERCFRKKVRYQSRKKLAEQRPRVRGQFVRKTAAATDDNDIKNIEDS

Test [6] concerns the target T6, PSEUDO RESPONSE REGULATOR 9 (Arabidopsis thaliana) (UniProt Q8L500).
T6 sequence: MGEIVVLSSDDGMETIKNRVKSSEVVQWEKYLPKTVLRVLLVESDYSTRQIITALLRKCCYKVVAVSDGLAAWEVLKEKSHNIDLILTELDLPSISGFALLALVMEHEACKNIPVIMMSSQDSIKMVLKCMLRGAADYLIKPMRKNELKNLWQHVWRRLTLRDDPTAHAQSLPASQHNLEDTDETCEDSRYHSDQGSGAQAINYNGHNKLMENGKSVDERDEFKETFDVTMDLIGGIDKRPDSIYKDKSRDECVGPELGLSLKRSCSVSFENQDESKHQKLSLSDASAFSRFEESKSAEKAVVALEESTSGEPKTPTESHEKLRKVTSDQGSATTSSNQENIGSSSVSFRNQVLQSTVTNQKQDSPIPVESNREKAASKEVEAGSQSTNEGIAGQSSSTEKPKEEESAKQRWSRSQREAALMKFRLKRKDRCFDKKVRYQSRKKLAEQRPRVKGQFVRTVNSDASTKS

For test [7], the target named is T7, TIMING OF CAB EXPRESSION 1 (Arabidopsis thaliana (cDNA from Col-0 seedlings)) (UniProt Q9LKL2).
T7 sequence: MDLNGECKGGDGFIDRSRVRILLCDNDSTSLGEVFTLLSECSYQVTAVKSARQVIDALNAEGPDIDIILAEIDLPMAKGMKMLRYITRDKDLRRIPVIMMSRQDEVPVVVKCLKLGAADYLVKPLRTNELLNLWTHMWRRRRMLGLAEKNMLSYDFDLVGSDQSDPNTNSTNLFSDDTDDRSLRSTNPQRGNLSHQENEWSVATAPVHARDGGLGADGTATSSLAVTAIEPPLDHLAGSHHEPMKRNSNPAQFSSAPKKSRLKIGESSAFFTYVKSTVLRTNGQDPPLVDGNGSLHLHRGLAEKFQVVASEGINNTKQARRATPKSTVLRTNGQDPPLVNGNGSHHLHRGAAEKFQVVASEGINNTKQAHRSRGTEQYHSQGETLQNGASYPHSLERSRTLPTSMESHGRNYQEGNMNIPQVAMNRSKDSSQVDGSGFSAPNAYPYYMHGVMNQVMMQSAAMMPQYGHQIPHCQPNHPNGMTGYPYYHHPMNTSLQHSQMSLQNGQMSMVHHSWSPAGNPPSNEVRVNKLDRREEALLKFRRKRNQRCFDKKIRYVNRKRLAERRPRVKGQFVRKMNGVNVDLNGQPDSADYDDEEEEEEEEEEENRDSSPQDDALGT

For test [8], the target named is T8, basic HELIX-LOOP-HELIX 92 (Arabidopsis thaliana (cDNA from Col-0 seedlings)) (UniProt Q9FIX5).
T8 sequence: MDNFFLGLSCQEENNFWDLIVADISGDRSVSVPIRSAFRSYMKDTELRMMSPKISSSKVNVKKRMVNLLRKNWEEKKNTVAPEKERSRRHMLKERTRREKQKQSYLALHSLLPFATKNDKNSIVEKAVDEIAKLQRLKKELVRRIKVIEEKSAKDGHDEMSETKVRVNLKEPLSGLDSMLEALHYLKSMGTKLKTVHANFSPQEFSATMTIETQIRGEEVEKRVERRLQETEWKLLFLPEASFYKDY

No constants are given. Whether binding was seen depends on the method and setting. Some results given as binding are weak or reduced against the parent protein; the word gives no strength.

B1: PSEUDO RESPONSE REGULATOR 9 (protein, UniProt Q8L500 1-468)
chain: MGEIVVLSSDDGMETIKNRVKSSEVVQWEKYLPKTVLRVLLVESDYSTRQIITALLRKCCYKVVAVSDGLAAWEVLKEKSHNIDLILTELDLPSISGFALLALVMEHEACKNIPVIMMSSQDSIKMVLKCMLRGAADYLIKPMRKNELKNLWQHVWRRLTLRDDPTAHAQSLPASQHNLEDTDETCEDSRYHSDQGSGAQAINYNGHNKLMENGKSVDERDEFKETFDVTMDLIGGIDKRPDSIYKDKSRDECVGPELGLSLKRSCSVSFENQDESKHQKLSLSDASAFSRFEESKSAEKAVVALEESTSGEPKTPTESHEKLRKVTSDQGSATTSSNQENIGSSSVSFRNQVLQSTVTNQKQDSPIPVESNREKAASKEVEAGSQSTNEGIAGQSSSTEKPKEEESAKQRWSRSQREAALMKFRLKRKDRCFDKKVRYQSRKKLAEQRPRVKGQFVRTVNSDASTKS
Consider B1, for which the binding result in test [1] is on record as “binds”.

B2: basic HELIX-LOOP-HELIX 92 (protein, UniProt Q9FIX5 1-247)
chain: MDNFFLGLSCQEENNFWDLIVADISGDRSVSVPIRSAFRSYMKDTELRMMSPKISSSKVNVKKRMVNLLRKNWEEKKNTVAPEKERSRRHMLKERTRREKQKQSYLALHSLLPFATKNDKNSIVEKAVDEIAKLQRLKKELVRRIKVIEEKSAKDGHDEMSETKVRVNLKEPLSGLDSMLEALHYLKSMGTKLKTVHANFSPQEFSATMTIETQIRGEEVEKRVERRLQETEWKLLFLPEASFYKDY
With B2, the binding entry in test [2], in test [3], in test [4], in test [5], in test [6] and in test [7] was “no binding” in each case. Besides, the binding result in test [1] is on record as “binds”.

B3: … TESTA GLABRA 1 (protein, UniProt Q9XGN1 1-341)
chain: MDNSAPDSLSRSETAVTYDSPYPLYAMAFSSLRSSSGHRIAVGSFLEDYNNRIDILSFDSDSMTVKPLPNLSFEHPYPPTKLMFSPPSLRRPSSGDLLASSGDFLRLWEINEDSSTVEPISVLNNSKTSEFCAPLTSFDWNDVEPKRLGTCSIDTTCTIWDIEKSVVETQLIAHDKEVHDIAWGEARVFASVSADGSVRIFDLRDKEHSTIIYESPQPDTPLLRLAWNKQDLRYMATILMDSNKVVILDIRSPTMPVAELERHQASVNAIAWAPQSCKHICSGGDDTQALIWELPTVAGPNGIDPMSVYSAGSEINQLQWSSSQPDWIGIAFANKMQLLRV
Turning to B3, the binding result in test [4] and in test [8] was “binds” in each case.
